The full ranking holds about 33,000 sequences; the median of “E-score (-0.5 to 0.5)” is about -0.054, and the highest 2% start at about 0.39. The list shows a part of the results.
biological target: Ylr278c (UniProt Q05854); assay: PBM E-score (8-mer binding enrichment) (E-score (-0.5 to 0.5)); higher = stronger / more preferred TF binding; most listed sequences are background and not binding sites; settings: protein concentration: 200 nM; construct: GST-DNA-binding domain
How it was run: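 For each ungapped eight-base word taken together with its reverse complement, the Universal PBM Analysis Suite assigned an E-score. Binding data came from GST-tagged yeast transcription factors, applied at about 100-200 nM, on universal all-10-mer Agilent arrays made double-stranded by primer extension. Fluorescent anti-GST marked bound protein, and scans were normalised with masliner.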

Sequence | PBM E-score
TCGATGCA | -0.216
AAATCGAC | -0.00446
AAACGCTC | -0.0138
CGTAGCAC | -0.0954
ATCGCCCA | -0.22
CTGACGTC | -0.287
AGCCGGCG | 0.372
ACACGACA | -0.171
TCCGTAAA | 0.357
GTAGAGCA | -0.323
CCCTCGGA | 0.394
CAGGCCGA | 0.139
ACAACGAT | -0.0259
CTTCTCAC | 0.0661
CGACCCAG | -0.05
TCTGACCA | -0.209
CCTCGCAC | -0.0346
ACTCTGGG | -0.0835
AGCGCTCG | 0.0273
CGATAACG | 0.158
ACCAAAAT | -0.0259
CATGCATC | 0.207
ACCCCCCC | -0.362
ACCCCGGC | 0.355
CTCAAGTA | -0.216

Sequence | PBM E-score
AGGCCAGC | -0.295
GATAACGC | 0.248
CAGATACA | -0.0537
TAGGTACA | -0.26
CAACATCA | -0.0651
CCTGCGGA | 0.257
CGCTGCCA | -0.0216
GTCTTTGA | -0.182
CCACGATC | -0.226
ACGTTTAT | -0.164
AGCAGACG | -0.00216
GATGAGGA | -0.0716
GGATTGAA | 0.161
AGGCGTTC | -0.11
ATTCGAGC | -0.201
GTATGAAA | -0.026
TATAGACA | -0.22
GGGGGTAA | -0.206
AAGTTAGT | 0.00861
ACAGGGTA | -0.227
GGGGGGGA | -0.333
AAGTAACG | -0.0211
GAATACGA | -0.0699
TCACATGA | -0.274
GGGGACAA | -0.00441

Sequence | PBM E-score
CACGAGTA | -0.212
AACTACTG | -0.0935
ATGGATAG | 0.0332
ATAGACAA | -0.151
AGTTGCGC | 0.233
CCCCTGCC | -0.086
AACAGGGT | -0.0893
CGATGCCC | 0.0482
ATTGGAGA | -0.0108
AATTGGAA | -0.00019
CGGTGCGA | 0.0833
ACAACTCA | -0.123
CCAGACGG | -0.0129
AATTCGAT | 0.0514
GTACTCAA | -0.097
ACGTGGGA | -0.252
AGGCTATC | 0.0535
AGAGGTTA | -0.0284
AATCACCG | 0.251
AATAGGAA | -0.0713
TGCCGAAA | 0.325
CCGCTATA | 0.145
GTAGCCAA | -0.117
CCAGAGAG | -0.181
CGCTGGCC | -0.0482

Sequence | PBM E-score
AGTATAAG | -0.0883
CGACAGTC | -0.154
CGAGAGTA | 0.113
AGCAGCTG | -0.154
AAACCGTT | -0.0983
GTAGGCGA | -0.134
CAGTGTGC | -0.227
ATAAGATA | 0.0111
AGGATGGC | 0.095
ACACTCCG | 0.398
CAGAGTGA | -0.0361
AACTCGAT | -0.122
CTCATTGA | -0.173
AAGACCAC | -0.308
CTCCATTC | -0.178
CACAGTAC | -0.198
CTACGGTC | 0.139
AAATCATT | -0.0803
CCCTTTTC | -0.201
AGAATCCC | 0.125
CTCGGGGC | 0.197
CACAACAC | -0.132
CAGTCCGG | 0.367
ATTGCTCC | 0.256
GTATAGCA | -0.0478

Sequence | PBM E-score
CCTTCCAA | -0.186
CATAGGCG | -0.14
TACACCTA | -0.127
GGGCAAAA | 0.232
ACGGGCAT | 0.0221
GCTAGAGC | -0.192
GAACGCTA | -0.191
GCAGGGAC | -0.211
CCGGTGCC | 0.3
ACCTAGCC | 0.00188
AGGCTGTG | -0.168
AACCCGGA | 0.435
ATGCCATC | 0.0419
ACGCGGTA | 0.0629
GTTCAGTA | -0.228
GCATATAC | -0.0784
CGTTATCC | 0.169
AACAGACC | -0.0625
CAACTCTG | -0.0365
CTCGGATC | 0.34
CCTGACCG | 0.0942
AAAGATTT | 0.0431
CATTCGCC | 0.0184
AAAAGGGT | -0.18
TCGGATAA | 0.403

Sequence | PBM E-score
TCTTATAA | 0.0583
ATCGCCGA | 0.373
AGTCCCCA | -0.251
CGCGTAAC | 0.0516
ATTAAAGC | -0.128
CAGCGCTC | -0.0595
TCACTCCA | -0.0238
CGGTCAGA | 0.0192
CTTCGCGA | 0.178
TCAGGTAA | -0.264
AAATGGAC | 0.2
AGCAGTTC | -0.154
CGTTATAA | 0.0292
ATCAGCCA | -0.161
TACGGGGA | 0.218
AGGCCATC | -0.0692
AGACTGTG | -0.306
ATATCCGC | 0.38
CAAAAAGG | -0.203
AGTTGTTC | -0.0195
CTAATGTC | -0.0159
GTACGGAA | 0.31
ATATCGGA | 0.391
CAGCCTGG | -0.109
TACCCGTA | -0.0475

Sequence | PBM E-score
CTCCTACC | 0.00018
TTGAAAAA | -0.0417
AAAGTCTT | -0.0794
ACTCTACT | -0.128
ACGACGAA | 0.0437
AGAGAAGA | -0.0422
CCCCCAGA | -0.314
ATTGCGTC | 0.174
CACCCAAC | 0.0545
AACTTATG | -0.176
CGTAATTC | 0.0558
ATAAGCTA | -0.0602
CGCCAGTC | -0.0188
ACTTGCAG | -0.202
CTTAACCC | -0.124
ACCTACTC | -0.035
AGCCGGCC | 0.324
AAGTCAGA | -0.0129
CACGGTCA | -0.052
AAGCTTGA | -0.0383
AGTATGTC | -0.229
GCCCAAAC | 0.082
GAAATATC | 0.145
AGGTAACT | -0.0857
CCTCAAGA | 0.0387

Sequence | PBM E-score
AAAGAGAA | -0.0443
CCCTTTCC | -0.0771
ACCAACAA | 0.0102
TCAACGAA | 0.00562
ATGGCCAG | 0.0813
AGCGAAAA | -0.031
GTATGCCA | -0.181
ACTTTCCC | 0.108
CTTGTTTA | 0.00478
AACGCGGT | 0.149
CAATCTTA | -0.133
ACCTTGCA | -0.233
CCGTGATC | 0.0826
ACCAGCGG | 0.209
CCCAAAAA | -0.138
TAATCGTA | -0.186
TCCTGAGA | -0.102
AGAGGATC | -0.118
AAGTAATA | -0.155
CCAAGAAC | -0.173
AGTTCAAT | -0.12
CCGCCTAC | 0.172
ACCTAATG | -0.331
GCACACAC | -0.121
GTCCACAA | -0.152

Sequence | PBM E-score
TTAGCTAA | -0.273
ACTACAAA | -0.0603
ATTGCGTG | 0.0465
ACGATCCG | 0.283
ACCACAAG | 0.00571
CGGTCCGC | 0.38
ATGTCGAG | -0.0607
GGTCGAGA | -0.0915
ATTAGATC | -0.0538
GCAAGCTA | -0.171
CACCTACA | -0.249
AACTGACT | -0.103
GCGTACAC | -0.137
ATCGGATG | 0.329
CTTGCAGC | -0.124
AACGTAAG | -0.134
GATTCTGA | -0.107
ATCTTTAC | -0.0617
CAATACTG | -0.208
ACAATAAT | 0.042
CGACCTCG | 0.0415
TCACGAGA | -0.189
CACTCCTG | -0.0899
ACTGAAGC | -0.124
GCACCAGA | -0.14

Sequence | PBM E-score
AGCCGCAA | -0.0333
CCGCTTTC | 0.211
GGGCTTCA | 0.014
ATAGTCAG | -0.158
CAAACGCG | 0.153
GCGTTAGA | 0.107
AATTAACG | 0.0135
ATTACCTC | 0.013
AACGCGAC | -0.129
ATGCAAAG | -0.16
TGCCGACA | 0.196
CCATTGTA | 0.0421
TACAAGCA | -0.00116
AATGCACT | -0.209
ACGTATAT | -0.316
CCCGAAAC | 0.177
ATCTGGTC | -0.0594
TGATGCAA | -0.244
GACAAACA | -0.0246
ACCCGGAA | 0.394
TATTTAGA | -0.179
GTCTAGAA | 0.0195
CTGAAGGC | -0.261
CATCCCCG | 0.396
CAAAATTC | 0.238

Sequence | PBM E-score
ATGATAGC | -0.0408
GAAAGTCA | -0.177
AAAGCCCA | 0.0171
AAGAATTA | -0.054
CTTATCAC | -0.245
GGATGCGA | -0.134
AGGAAACT | -0.152
ACCCTATA | -0.189
ATTCCATC | -0.0127
GGCCTTAC | 0.0432
CGGGCGGA | 0.405
AAAGATAA | -0.0975
CAGGACCG | 0.0623
CTACAGGA | -0.145
AAATGATC | 0.00167
CGGGCTCC | 0.279
GCCAATTA | -0.097
ACGTTTAG | -0.29
CGTGTGTC | 0.0195
ATGCTTCG | 0.0134
ACAGGATC | -0.214
CTCACGTC | -0.0221
CGGGACTA | 0.155
AAAATATG | 0.0678
GAAACGAA | 0.00018

Sequence | PBM E-score
CCCAATTA | -0.00498
CCACATGA | -0.138
GAAGTGAC | -0.0716
CGAAGGGC | 0.0868
AAACGAGT | -0.0122
AACGATGC | -0.233
AGTTTCAA | -0.0744
CTCAATGC | -0.0847
ATGTTGAA | -0.0435
AGCTCCTC | -0.144
CCGTGCCC | 0.134
TCCACGAA | -0.137
CCCCACGA | -0.0978
CATGAGGA | 0.0164
GACATTAA | 0.0355
CGACTTGC | -0.034
TACAGCTA | -0.239
CGTGAAAC | -0.0803
ACAATGAT | -0.168
GTGAGGAA | -0.0728
ACGCAAAT | 0.0704
GTTGCGAA | -0.0658
TCGGGCAA | 0.146
AGACAGCG | 0.0506
GTCGGTAA | 0.13

Sequence | PBM E-score
ATATAAAC | -0.199
CGCACGGC | 0.184
AGTCGGCC | 0.253
GGGTTTAA | 0.0672
GAGGAATC | -0.0345
AATACAAC | 0.00662
AATAACCA | -0.247
CTTACCAC | -0.157
ATGATTAC | -0.121
ACATTCAG | -0.19
AGCCAGTA | -0.0813
AAATAAAA | -0.0105
TAGATATA | 0.0126
GCTTACGA | -0.215
CGTCTCAA | -0.111
AAAGAAAA | -0.0274
GTAATAGA | -0.0615
ATTCTAAC | -0.14
AATTTACA | -0.257
AGTATACG | -0.151
CCCCTTAC | -0.195
CAATAGCA | -0.0161
ACTACGCC | -0.0396
ATAACATC | -0.143
ACTGGGTC | -0.146

Sequence | PBM E-score
TGGCGCCA | -0.109
GGAAAGAA | 0.088
ATGGTATA | -0.225
TGCGCCAA | -0.0175
CGGGGTCA | 0.289
CCTGGGAC | -0.225
CCCTCCCA | 0.0446
AACAAGTA | -0.225
AACCTCTG | -0.166
GTTCAATA | -0.00677
AAGATCCA | -0.0199
CTTTCTTA | -0.101
CTTCCGGA | 0.451
AGTACGCG | -0.0482
GACTCGGC | 0.134
GCGTAATA | -0.0719
TATCCCCA | -0.0119
GAATAGTC | -0.0932
ATGGGAAA | -0.185
